# Reference: patent publication US20250041455A1 (Regeneron, published 2025)
# B1: 12847B scFv (VH-VK) (scFv)
# chain: EVQLVESGGGLVQPGRSLRLSCAASGFTFDDYAMNWVRQAPGKGLEWVSGISWSSGSMDYADSVKGRFTISRDNAKNSLYLQMNSLRTEDTALYYCAKAREVGDYYGMDVWGQGTTVTVSS[here about 100 residues without letters]
# B2: 12845B scFv (VH-VK) (scFv)
# chain: EVQLVESGGGLVQPGGSLRLSCAASGFTVSNYEMNWVRQAPGKGLEWVSYISSSTSNIYYADSVKGRFTISRDNAENSLYLQMNSLRVEDTAVYYCVRDGIVVVPVGRGYYYYGLDVWGQGTTVTVSS[here about 100 residues without letters]
# B3: 69323 scFv (VH-VK) (scFv)
# chain: EVQLVESGGGLVQPGRSLRLSCAASGFTFDDYAMHWVRQAPGKGLEWVSGISWNSGYIGYADSVKGRFTISRDNAENSLHLQMNSLRAEDTALYYCARGGSTLVRGVKGGYYGMDVWGQGTTVTVSS[here about 100 residues without letters]
# B4: 12843B scFv (VH-VK) (scFv)
# chain: EVQLVESGGGLVQPGGSLRLSCAASGFTFNIFEMNWVRQAPGKGLEWISYISSRGTTTYYADSVRGRFTISRDNAKNSLYLQMNSLRAEDTAVYYCARDYEATIPFDFWGQGTLVTVSS[here about 100 residues without letters]
# B5: 12835B scFv (VH-VK) (scFv)
# chain: EVQLVESGGGLIQPGGSLRLSCEASGFTFRNYEMNWVRQAPGKGLEWVSYISSSGNMKDYAESVKGRFTISRDNVKNSLQLQMNSLRVEDTAVYYCARDEFPYGMDVWGQGTTVTVSS[here about 100 residues without letters]
# B6: 12839B scFv (VH-VK) (scFv)
# chain: QVQLVESGGGVVQPGRSLRLSCAASGFPFSNYVMYWVRQAPGKGLEWVALIFFDGKKNYHADSVKGRFTITRDNSKNMLYLQMNSLRPEDAAVYYCAKIHCPNGVCYKGYYGMDVWGQGTTVTVSS[here about 100 residues without letters]
# B7: 12841B scFv (VH-VK) (scFv)
# chain: EVQLVESGGGLVQPGGSLRLSCAASGFTFSNYWMNWVRQAPGKGLEWVANIKEDGGKKLYVDSVKGRFTISRDNAKNSLFLQMNSLRAEDTAVYYCAREDTTLVVDYYYYGMDVWGQGTTVTVSS[here about 100 residues without letters]
# Target: T1, hmm.hTfRC (REGN2431) (human, UniProt P02786)
# T1 construct: also called hmm.hTfR(C89-F763); His-myc-myc-hTFRC ecto
# T1 sequence (P02786 other isoform, or with tags, fused parts or gaps): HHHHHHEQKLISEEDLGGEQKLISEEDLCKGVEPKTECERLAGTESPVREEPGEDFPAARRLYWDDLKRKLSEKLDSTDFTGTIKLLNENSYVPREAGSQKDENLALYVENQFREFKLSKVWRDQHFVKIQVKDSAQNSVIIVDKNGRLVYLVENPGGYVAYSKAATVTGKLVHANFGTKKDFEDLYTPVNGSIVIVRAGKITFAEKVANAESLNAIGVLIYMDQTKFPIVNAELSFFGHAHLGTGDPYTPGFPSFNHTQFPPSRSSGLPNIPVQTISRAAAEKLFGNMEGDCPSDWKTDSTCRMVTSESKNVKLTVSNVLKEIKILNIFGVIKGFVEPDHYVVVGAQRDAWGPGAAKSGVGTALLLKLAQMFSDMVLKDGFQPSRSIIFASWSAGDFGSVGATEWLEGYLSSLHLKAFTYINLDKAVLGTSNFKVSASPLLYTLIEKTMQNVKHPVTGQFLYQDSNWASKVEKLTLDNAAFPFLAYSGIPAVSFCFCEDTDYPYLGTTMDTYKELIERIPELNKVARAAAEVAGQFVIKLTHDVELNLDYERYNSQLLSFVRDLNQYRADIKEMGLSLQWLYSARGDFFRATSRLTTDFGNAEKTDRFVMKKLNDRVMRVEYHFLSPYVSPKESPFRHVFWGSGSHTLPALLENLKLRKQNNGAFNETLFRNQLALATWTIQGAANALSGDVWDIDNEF
# Test: blocking ELISA; Hmm-hTFRC + supernatant on plate-bound holo-Tf
row,% Blocking [%],Binder
1,11,B1
2,18,B2
3,7,B3
4,17,B4
5,45,B5
6,23,B6
7,10,B7
